Results as given in the supplement of paper PMC9446081.
Out of some 39,000 compounds screened, about 220 (0.56%) showed activity. Some of the results follow.

Tested on: Escherichia coli K-12 BW25113
Assay: relative growth (OD600 normalised to plate interquartile mean) (fraction); higher = less growth inhibition, active = 0.2 or less
Settings: 50 µM; LB; incubation time: overnight (16-24 h)
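Note: static incubation at 37 °C against the wild-type strain, values averaged over two biological replicates.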

Question: How did the relative growth turn out when `CO[C@@H]1CN(C)C(=O)c2ccc(NC(=O)CC(F)(F)F)cc2OC[C@H](C)N(C(=O)C2CCOCC2)C[C@H]1C` was run?
Answer: inactive: 1.04

Question: How did the relative growth turn out when `O=C(C[C@H]1C=C[C@@H](NS(=O)(=O)c2ccc(F)cc2)[C@@H](CO)O1)NCc1ccc(Cl)c(Cl)c1` was run?
Answer: inactive: 0.958

Question: `CCS(=O)(=O)N1C[C@]2(CN(Cc3cccc(c3)Cl)[C@H](CO)c3c2c2ccc(cc2n3C)OC)C1` was tested. Which relative growth did it give?
Answer: inactive: 1.07

Question: With `C[C@@H]1CN([C@H](C)CO)C(=O)c2cc(NC(=O)Cn3cnnn3)ccc2O[C@H]1CN(C)Cc1ccc(C(=O)O)cc1` as the compound, how does the relative growth read?
Answer: inactive: 0.991

Question: Which relative growth does the source give for `Cc1noc(C)c1NC(=O)Nc1ccc2c(c1)C(=O)N([C@@H](C)CO)C[C@H](C)[C@@H](CN(C)C(=O)Nc1ccc(C(F)(F)F)cc1)OCCCC[C@@H](C)O2` here?
Answer: inactive: 1.02

Question: How did the relative growth turn out when `COc1ccc(NC(=O)Nc2ccc3c(c2)C(=O)N([C@H](C)CO)C[C@H](C)[C@H](CN(C)S(=O)(=O)c2ccc(F)cc2)OCCCC[C@@H](C)O3)cc1` was run?
Answer: inactive: 1.01

Question: For `C[C@@H]1CN([C@@H](C)CO)C(=O)Cc2cc(NS(=O)(=O)c3cn(C)cn3)ccc2O[C@@H]1CN(C)S(=O)(=O)c1cccs1`, which relative growth is on record?
Answer: inactive: 0.895

Question: How did the relative growth turn out when `CC(C)NC(=O)N(C)C[C@H]1Oc2ccc(NC(=O)c3ccncc3)cc2CC(=O)N([C@@H](C)CO)C[C@@H]1C` was run?
Answer: inactive: 0.992

Question: How did the relative growth turn out when `C[C@@H]1CN([C@@H](C)CO)C(=O)c2cc(NC(=O)C3CCCCC3)ccc2O[C@@H](C)CCCCO[C@H]1CN(C)C(=O)C1CCCCC1` was run?
Answer: inactive: 1.02

Question: How did the relative growth turn out when `O=C(C[C@@H]1CC[C@@H]2[C@H](COC[C@H](O)CN2C(=O)c2ccc3c(c2)OCO3)O1)NC1Cc2ccccc2C1` was run?
Answer: inactive: 1.03

Question: With `O=c1nc[nH]c2nc[nH]c12` as the compound, how does the relative growth read?
Answer: inactive: 0.991

Question: For `CN1CCNC1=S`, which relative growth is on record?
Answer: inactive: 1.01

Question: For `C[C@@H]1CN([C@H](C)CO)C(=O)c2cc(N(C)C)ccc2O[C@@H](C)CCCCO[C@H]1CN(C)S(=O)(=O)c1cn(C)cn1`, which relative growth is on record?
Answer: inactive: 0.992

Question: With `C[C@H]1CN([C@@H](C)CO)C(=O)Cc2cc(NC(=O)Cn3cnnn3)ccc2O[C@H]1CN(C)Cc1ccc(Cl)c(Cl)c1` as the compound, how does the relative growth read?
Answer: inactive: 1.02

Question: How did the relative growth turn out when `C[C@@H]1CCCCO[C@H](CN(C)Cc2ccc(C(F)(F)F)cc2)[C@H](C)CN([C@@H](C)CO)C(=O)c2cc(NC(=O)Nc3ccc(C(F)(F)F)cc3)ccc2O1` was run?
Answer: inactive: 1.02

Question: `O=C(C[C@H]1CC[C@@H](NC(=O)c2cccnc2)[C@@H](CO)O1)NCCN1CCCCC1` was tested. Which relative growth did it give?
Answer: inactive: 0.963

Question: For `COc1ccccc1NC(=O)N(C)C[C@@H]1Oc2ncc(C#CCN(C)C)cc2C(=O)N([C@H](C)CO)C[C@H]1C`, which relative growth is on record?
Answer: inactive: 0.998

Question: How did the relative growth turn out when `CC(C)CN(C(=O)COC(=O)c1c2c(nc3ccccc13)CCC2)c1c(N)n(Cc2ccccc2)c(=O)[nH]c1=O` was run?
Answer: inactive: 1.02

Question: `CCc1nc2ccc(C(=O)Nc3cccc(OCC(=O)N(C)C)c3)cn2c1N(C)Cc1cc2ccccc2s1` was tested. Which relative growth did it give?
Answer: inactive: 1.03

Question: Which relative growth does the source give for `C=C(C)[C@@H]1CC[C@]2(C(=O)O)CC[C@]3(C)[C@H](CC[C@@H]4[C@@]5(C)CC[C@H](OC(=O)CC(C)(C)C(=O)O)C(C)(C)[C@@H]5CC[C@]43C)[C@@H]12` here?
Answer: inactive: 0.85

Question: How did the relative growth turn out when `C[C@@H]1CCCCO[C@@H](CN(C)C(=O)NC2CCCCC2)[C@@H](C)CN([C@H](C)CO)C(=O)c2cc(NC(=O)Nc3ccccc3)ccc2O1` was run?
Answer: inactive: 1.01

Question: Which relative growth does the source give for `COc1ccc(CN(C)C[C@@H]2OCCCC[C@@H](C)Oc3ccc(NC(=O)NC4CCCCC4)cc3C(=O)N([C@@H](C)CO)C[C@H]2C)cc1` here?
Answer: inactive: 0.991

Question: How did the relative growth turn out when `O=C1O[C@@H](c2ccccc2)[C@@H](c2ccccc2)N2[C@@H](c3ccccc3OCCO)[C@]3(C(=O)Nc4ccc(C#CC5=CCCCC5)cc43)[C@@H](C(=O)O)[C@H]12` was run?
Answer: inactive: 0.92

Question: With `C[C@@H]1CN([C@H](C)CO)C(=O)c2c(c3ccccc3n2C)-c2ccccc2CO[C@H]1CN(C)C(=O)CCC(F)(F)F` as the compound, how does the relative growth read?
Answer: inactive: 0.982

Question: How did the relative growth turn out when `C[C@H](CO)N1C[C@H](C)[C@H](CN(C)Cc2ccc(Oc3ccccc3)cc2)OCc2ccccc2-c2c(n(C)c3ccccc23)C1=O` was run?
Answer: inactive: 1

Question: With `C[C@H](CO)N1C[C@H](C)[C@@H](CN(C)S(C)(=O)=O)Oc2c(NC(=O)Nc3ccccc3)cccc2C1=O` as the compound, how does the relative growth read?
Answer: inactive: 0.953

Question: With `C[C@@H]1CN([C@H](C)CO)C(=O)Cc2cc(NC(=O)Cc3cn(C)c4ccccc34)ccc2O[C@@H]1CN(C)C(=O)Nc1cccc2ccccc12` as the compound, how does the relative growth read?
Answer: inactive: 1.02

Question: With `Cc1ccc2c(c1)[C@@]1(CC(=O)N(Cc3ccccc3)C1=O)C(=O)N2CCCn1c(=O)c2c(ncn2C)n(C)c1=O` as the compound, how does the relative growth read?
Answer: inactive: 1.05

Question: Which relative growth does the source give for `C[C@@H]1CCCCO[C@@H](CN(C)Cc2ccc(C(=O)O)cc2)[C@H](C)CN([C@@H](C)CO)C(=O)c2cc(NC(=O)C3CCCCC3)ccc2O1` here?
Answer: inactive: 1.02

Question: With `COc1cccc(S(=O)(=O)N(C)C[C@H]2Oc3cc(C4=CCCC4)ccc3S(=O)(=O)N([C@@H](C)CO)C[C@@H]2C)c1` as the compound, how does the relative growth read?
Answer: inactive: 1.02

Question: Which relative growth does the source give for `C[C@@H]1CN([C@@H](C)CO)C(=O)Cc2cc(NC(=O)Nc3cccc4ccccc34)ccc2O[C@H]1CN(C)C(=O)Nc1ccccc1` here?
Answer: inactive: 0.989

Question: Which relative growth does the source give for `C[C@H]1CN([C@@H](C)CO)C(=O)Cc2cc(NC(=O)Nc3ccc(C(F)(F)F)cc3)ccc2O[C@H]1CN(C)Cc1ccc(Cl)c(Cl)c1` here?
Answer: inactive: 0.993

Question: For `C[C@H]1CN([C@@H](C)CO)S(=O)(=O)c2ccc(Br)cc2O[C@H]1CN(C)C(=O)c1cccnc1`, which relative growth is on record?
Answer: inactive: 1.01

Question: Which relative growth does the source give for `C[C@@H]1CN([C@@H](C)CO)C(=O)c2cccc(NC(=O)Nc3ccccc3)c2O[C@@H]1CN(C)Cc1ccc(-c2ccccc2)cc1` here?
Answer: inactive: 1.02

Question: `C[C@@H]1CCCCO[C@H](CN(C)C(=O)c2ccncc2)[C@H](C)CN([C@@H](C)CO)C(=O)c2cc(NS(C)(=O)=O)ccc2O1` was tested. Which relative growth did it give?
Answer: inactive: 0.996

Question: `Cc1ccc(S(=O)(=O)Nc2ccc3c(c2)C(=O)N([C@@H](C)CO)C[C@H](C)[C@@H](CN(C)C(=O)c2ccccc2)OCCCC[C@@H](C)O3)cc1` was tested. Which relative growth did it give?
Answer: inactive: 0.992

Question: With `C[C@@H]1CN([C@H](C)CO)C(=O)Cc2cc(NC(=O)Nc3ccc(C(F)(F)F)cc3)ccc2O[C@@H]1CN(C)Cc1ccc2c(c1)OCO2` as the compound, how does the relative growth read?
Answer: inactive: 1.06

Question: `COc1ccc(S(=O)(=O)N(C)C[C@@H]2Oc3ccc(NS(=O)(=O)c4ccccc4)cc3C(=O)N([C@H](C)CO)C[C@@H]2C)cc1` was tested. Which relative growth did it give?
Answer: inactive: 1.02

Question: How did the relative growth turn out when `C[C@H]1CC=CC[C@H](c2cccc(Cl)c2)NC(=O)[C@@H](Cc2ccccc2)N(C)C(=O)c2ccccc2O1` was run?
Answer: inactive: 0.983

Question: For `Cc1ccc(S(=O)(=O)N(C)C[C@H]2Oc3cc(C#Cc4ccccc4)ccc3S(=O)(=O)N([C@@H](C)CO)C[C@H]2C)cc1`, which relative growth is on record?
Answer: inactive: 1.04

Question: Which relative growth does the source give for `C[C@@H]1CN([C@H](C)CO)C(=O)c2cc(C#CCN(C)C)cnc2O[C@H]1CN(C)Cc1ccc(C(=O)O)cc1` here?
Answer: inactive: 0.984

Question: How did the relative growth turn out when `C[C@H]1CN([C@@H](C)CO)S(=O)(=O)c2ccc(C#Cc3ccccc3)cc2O[C@@H]1CN(C)S(C)(=O)=O` was run?
Answer: inactive: 1.02

Question: With `C[C@H]1CN([C@@H](C)CO)C(=O)Cc2cc(NS(C)(=O)=O)ccc2O[C@H]1CN(C)S(=O)(=O)c1ccc(Cl)cc1` as the compound, how does the relative growth read?
Answer: inactive: 0.952

Question: Which relative growth does the source give for `CC(C)NC(=O)N1Cc2cc(C(=O)NC3CCCCC3)nc(-c3cccc(-c4cccnc4)c3)c2[C@@H]1CCO` here?
Answer: inactive: 0.983

Question: Which relative growth does the source give for `COCC(=O)N(C)C[C@@H]1Oc2cc(C#Cc3cccnc3)ccc2S(=O)(=O)N([C@@H](C)CO)C[C@H]1C` here?
Answer: inactive: 0.968

Question: Which relative growth does the source give for `C[C@@H]1CCCCO[C@H](CN(C)C(=O)Nc2ccc3c(c2)OCO3)[C@H](C)CN([C@@H](C)CO)C(=O)c2cc(NS(=O)(=O)c3ccc(Cl)cc3)ccc2O1` here?
Answer: inactive: 1.02

Question: For `Cc1noc(C)c1NC(=O)N[C@@H]1C=C[C@H](CC(=O)NCCCN(C)C)O[C@H]1CO`, which relative growth is on record?
Answer: inactive: 1.04

Question: Which relative growth does the source give for `CO[C@H](CN(C)S(=O)(=O)c1cn(C)cn1)[C@@H](C)CN(C(=O)Nc1ccc(C(F)(F)F)cc1)[C@@H](C)CO` here?
Answer: inactive: 0.699

Question: How did the relative growth turn out when `C[C@@H]1CN([C@H](C)CO)C(=O)c2cc(NC(=O)Nc3ccc(C(F)(F)F)cc3)ccc2O[C@@H](C)CCCCO[C@@H]1CN(C)Cc1ccc(C(=O)O)cc1` was run?
Answer: inactive: 0.982

Question: How did the relative growth turn out when `COc1ccc(CN(C)C[C@H]2OCCCC[C@@H](C)Oc3ccc(NC(=O)c4ccccc4)cc3C(=O)N([C@@H](C)CO)C[C@H]2C)cc1` was run?
Answer: inactive: 0.994

Question: How did the relative growth turn out when `Cc1noc(C)c1NC(=O)N(C)C[C@@H]1Oc2ccc(NS(C)(=O)=O)cc2C(=O)N([C@@H](C)CO)C[C@@H]1C` was run?
Answer: inactive: 1.03

Question: For `Cc1ccc(S(=O)(=O)Nc2ccc3c(c2)C(=O)N([C@H](C)CO)C[C@H](C)[C@H](CN(C)S(=O)(=O)c2ccc(C)cc2)OCCCC[C@@H](C)O3)cc1`, which relative growth is on record?
Answer: inactive: 1.03

Question: `CC(C)NC(=O)Nc1ccc2c(c1)C(=O)N([C@H](C)CO)C[C@H](C)[C@@H](CN(C)S(=O)(=O)c1ccc(F)cc1)O2` was tested. Which relative growth did it give?
Answer: inactive: 1.01

Question: With `C[C@H]1CN([C@@H](C)CO)C(=O)c2cccc(NC(=O)c3ccc(-c4nccs4)cc3)c2O[C@@H]1CN(C)S(=O)(=O)c1ccc(Cl)cc1` as the compound, how does the relative growth read?
Answer: inactive: 1.01

Question: With `c1cnc(N2CCN(Cc3ccc4c(c3)OCO4)CC2)nc1` as the compound, how does the relative growth read?
Answer: inactive: 0.99

Question: How did the relative growth turn out when `COc1ccc(S(=O)(=O)Nc2ccc3c(c2)C(=O)N([C@@H](C)CO)C[C@H](C)[C@H](CN(C)C(=O)Nc2c(C)noc2C)OCCCC[C@@H](C)O3)cc1` was run?
Answer: inactive: 0.982

Question: How did the relative growth turn out when `C[C@H](CO)N1C[C@H](C)[C@@H](CN(C)Cc2ccc(-c3ccccc3)cc2)Oc2c(NS(=O)(=O)c3cccs3)cccc2C1=O` was run?
Answer: inactive: 0.99
